Source: PubChem BioAssay AID1508642 (National Center for Advancing Translational Sciences (NCATS), 2021)
Among all 43,000 compounds or so, about 200 (0.47%) were called active. Another 12% or so got no clear call; they are omitted. Calls follow the shape of the dose curve; as a rule, active = well fitted cell-killing curve with a large enough effect; inconclusive = small, poorly fitted or top-dose-only effect, or effect the other way; inactive = flat fitted curve, though single readings scatter. The list shows a part of the results.

Assay: Cell viability qHTS assay in S16 Pmp22-F2sN cells; also: nearly all actives have a fitted effect of over 65% in size
Details: S16 Pmp22-F2sN Schwann cells (luciferase reporters placed in the Pmp22 gene) viability, CellTiter-Glo, 24 h; series mostly up to 57.5 µM; activity change, negative = cytotoxicity: at the top concentration
In short: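 CellTiter-Glo counter-screen, qHTS, 1536-well. Cells: S16(c9) Pmp22-F2sN, 500-1,000/well in DMEM + 10% FBS. Cpd 23 nL pin transfer, 24 h, 37C/5% CO2. Read: luminescence, CCD imager.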
% is scaled to controls: 0 for no effect and ±100 for the full control effect.

Compound | activity change, negative = cytotoxicity
CCSc1nc2c(c(=O)[nH]c(=O)n2C)n1CC(O)COc1ccc(Cl)cc1 (centres undefined) | inactive: -13.8%
Cc1ccc(C)c(S(=O)(=O)c2nnn3c2nc(Nc2ccc(F)c(Cl)c2)c2sccc23)c1 | inactive: 0.301%
Cc1nc(SCC(=O)Nc2ccc(Br)cc2)[nH]c(=O)c1Cc1ccccc1 | inactive: -0.588%
CCc1ccc(OCC(=O)NCc2nc(-c3cccc(C)c3)no2)c(Br)c1 | inactive: 18%
Cc1ccc2c(c1)N(C(=O)N1CCC(C(=O)NCc3ccco3)CC1)CC(C)O2 (centres undefined) | inactive: 3.63%
Cc1ccc2nc(NC(=O)c3cc(=O)c4cc(Cl)ccc4o3)sc2c1 | inactive: 12.1%
CCc1ccccc1NC(=O)CSc1nnc(CC)c(CC)n1 | inactive: -8.8%
O=C(NCCc1ccc(Cl)cc1)c1ccc(CS(=O)(=O)Cc2ccccc2F)o1 | inactive: -29.2%
CC(=O)N1CCc2c(sc3c2c(=O)n(-c2ccc(C)cc2)c(=O)n3CC(=O)Nc2ccccc2)C1 | inactive: -4.02%
CCOc1ccc(-c2c(C)nn3c(C)c(C(=O)NCc4ccc(C)o4)cnc23)cc1OCC | inactive: 9.12%
CC(C)c1ccc(Nc2c(-c3ccccc3O)nc3cnccn23)cc1 | inactive: -9.11%
COC(=O)c1c(NC(=O)c2ccccc2C(=O)O)sc2c1CCCC2 | inactive: -4.51%
Cc1ccc(-c2cc(C(=O)NCc3ccccc3)c3c(-c4ccc(C)cc4)[nH]nc3n2)cc1 | inactive: -1.48%
COc1ccc(Cn2ccc3nc(C)c(C(=O)Nc4ccc(C)c(F)c4)cc3c2=O)cc1 | inactive: 5.53%
COc1ccccc1NC(=O)c1c(NC(=O)c2ccccc2F)sc2c1CCC2 | inactive: -1.66%
COc1ccc(NC(=O)c2nnn(Cc3ccc(Br)cc3F)c2N)c(OC)c1 | inactive: 4.91%
O=C(C1CCN(S(=O)(=O)c2cccc3nonc23)CC1)N1CCN(c2ccccc2)CC1 | inactive: 19.2%
CCOc1ccc(CNC(=O)c2ccc(CS(=O)c3ccccc3)o2)cc1 (centres undefined) | inactive: 3.41%
COc1ccc(N2CCN(C(=O)c3nc(-c4ccc(Cl)cc4)n4c3CCCCC4)CC2)cc1 | inactive: -2.61%
Cc1ccc(-n2c(SCC(=O)Nc3cccc(Cl)c3)nc3n[nH]c(C)c3c2=N)cc1 | inactive: -14%
Cc1ccc(N2CC(NC(=O)c3ccc4c(c3)OCO4)CC2=O)cc1 (centres undefined) | inactive: 7.5%
CC(=O)N1CCCc2ccc(NS(=O)(=O)c3ccc(F)cc3F)cc21 | inactive: -1.4%
Cc1ccccc1NC(=O)Cn1nc(-c2ccc(F)cc2)c2cnc3ccccc3c21 | inactive: 6.98%
CS(=O)(=O)N1CCc2cc(C(=O)N3CCN(c4ccc(F)cc4)CC3)ccc21 | inactive: -9.22%
CCc1ccc(NC(=O)c2ccc3c(c2)nnn3CC)cc1 | inactive: -9.43%

Compound | activity change, negative = cytotoxicity
Cc1c(Cl)cccc1-n1ncc(C(=O)Nc2ccc3c(c2)OCCO3)c1C1CCN(C(=O)OC(C)(C)C)CC1 | inactive: -2.17%
Cc1ccccc1OCC(=O)OCc1cc(=O)n2ccsc2n1 | inactive: 2.16%
Cc1ccc2cc3cc(C(=O)Nc4ccc(F)cc4Cl)oc3nc2c1 | inactive: -6.75%
Cc1ccc(-n2nc3c(N4CCC(C(=O)NC(C)C)CC4)nnc(C)c3c2C)cc1 | inactive: -23.1%
Cc1cc(C)cc(NC(=O)c2cc(S(=O)(=O)N3CCCCCC3)cn2C)c1 | inactive: 3.73%
Cn1c(SCc2ccc(F)cc2)nc2ccc(C(=O)NCc3ccc(F)cc3)cc21 | inactive: 27%
Cc1nn(CC(=O)NC2CC2)c(=O)c2cc3ccccc3n12 | inactive: 6.14%
CCC1CN(C(=O)N2CCC(C(=O)NCc3ccc(OC)cc3OC)CC2)c2cc(C)ccc2O1 (centres undefined) | inactive: -5.71%
Cc1ccc(NC(=O)Cn2c(-c3ccc4c(c3)OCO4)cn(-c3ccccc3)c2=O)cc1C | inactive: -24%
COC(=O)c1ccc(Nc2ncnc3c2nc2n3CCCC2)cc1 | inactive: -26.9%
CCOc1ccc(C(=O)NCCn2cc(SCC(=O)NCCc3ccc(OC)c(OC)c3)c3ccccc32)cc1 | inactive: 16.8%
CCOc1ccccc1NC(=O)C1CCN(S(=O)(=O)c2c(C)noc2/C=C/c2ccc(C)cc2)CC1 | inactive: -2.76%
CCOC(=O)N1CCN(C(=O)CN(c2cccc(Cl)c2C)S(=O)(=O)c2ccc(C)cc2)CC1 | inactive: -17.8%
O=C(Nc1ccccc1)c1cccc2c(=O)c3c([nH]c12)CCCC3 | inactive: 1.75%
COc1ccccc1-c1nc(-c2ccc(Br)o2)no1 | inactive: -22.3%
Cc1cccc(-n2c(SCC(N)=O)nc3c(oc4ccccc43)c2=O)c1 | inactive: 19.6%
COc1ccccc1OCCn1cc(C(=O)c2cccs2)c2ccccc21 | inactive: -9.83%
COc1ccc(Cl)cc1NC(=O)Cn1ccn(Cc2ccc(C)cc2)c(=O)c1=O | inactive: -18.2%
O=C(c1cc2c(=O)oc3ccccc3c2s1)N1CCN(c2cccc(Cl)c2)CC1 | inactive: 5.22%
Cc1ccc(C)c(NC(=O)Cn2cc(C(=O)c3ccncc3)c(=O)c3cc(F)ccc32)c1 | inactive: 1.29%
CCOc1ccc(CNC(=O)c2cc3oc4ccccc4c3n2C)cc1 | inactive: -2%
COc1ccc(NC(=O)Cn2cnc3sc(C)c(S(=O)(=O)N4CCN(C)CC4)c3c2=O)cc1OC | inactive: 0.173%
O=C(CSc1nc2c(c(=O)[nH]1)CCC2)Nc1ccccc1F | inactive: 0.365%
CN(C)c1ccc(CNc2nc(-c3ccco3)nn2S(=O)(=O)c2ccc3ccccc3c2)cc1 | inactive: 6.67%
Cc1c(Cl)ccc2sc(N3CCN(C(=O)c4ccco4)CC3)nc12 | inactive: -6.7%

Compound | activity change, negative = cytotoxicity
Cc1ccc(CCNC(=O)CN(c2ccc(C)cc2)S(=O)(=O)c2c(C)noc2C)cc1 | inactive: -4.61%
COc1ccccc1CNc1ccc(-c2nc(C(C)C)no2)cc1[N+](=O)[O-] | inactive: -27.7%
O=C(Nc1ccc(F)cc1)[C@H](Cc1ccccc1)N1Cc2ccccc2C1=O | inactive: -17.3%
CC(C)CCOc1ccc(C(=O)Nc2sc3c(c2C#N)CCCCC3)cc1 | inactive: 0.706%
Cn1nnnc1SCCCNCc1cccc(OCc2ccc(Cl)cc2)c1 | inactive: -28.3%
Cc1ccccc1-c1nc(CNC(=O)Nc2ccccc2)c(C)o1 | inactive: 6.08%
Cc1ccc(C(=O)Nc2ccc(Cl)c(-c3nc4ncccc4o3)c2)c(C)c1 | inactive: -4.82%
CCOC(=O)C1CCN(C(c2ccccc2OC)c2c(O)cc(C)n(CCOC)c2=O)CC1 (centres undefined) | inactive: -7.71%
COc1cccc(-c2nc(-c3ccc(-c4ccccc4)nc3OC)no2)c1 | inactive: 0.246%
Cc1ccc(OC(=O)c2cc(-c3ccc4c(c3)OCCO4)on2)c(C)c1 | inactive: 1.88%
Cc1ccc(Cn2cccc2C2=NC(C)(C)CO2)cc1 | inactive: 1.22%
COc1ccccc1OC(C)C(=O)NCC1(N2CCOCC2)CCCCC1 (centres undefined) | inactive: 1.6%
COc1ccc(NC(=O)CCNS(=O)(=O)c2cccc3nonc23)cc1 | inactive: -2.19%
CCCCOc1ccc(-c2nonc2NC(=O)c2ccco2)cc1 | inactive: -5.53%
CCCC(=O)N1c2ncnn2C2(CCCCC2)[C@@H]2CCCC[C@@H]21 | inactive: -16.3%
COc1ccc(N2CCN(C(=O)Cn3cnc4nc5c(cc4c3=O)CCCC5)CC2)cc1 | inactive: -14.7%
Cc1ccc(S(=O)(=O)NCCc2nnc3ccc(SCc4ccccc4C)nn23)cc1 | inactive: -1.42%
COc1ccc(/C=C\c2onc(C)c2S(=O)(=O)N2CCC(C(=O)Nc3ccccc3OC)CC2)cc1 | inactive: -1.25%
CCOC(=O)c1cccc(NC(=O)c2cc(CN3CCCC3)on2)c1 | inactive: 13%
Cc1cc(C)c2oc(C(=O)Nc3sc4c(c3C(=O)NCc3ccco3)CCC4)cc(=O)c2c1 | inactive: 4.51%
Cc1ccc(C)c(CN2C(=O)c3ccccc3S(=O)(=O)c3ccc(C(=O)Nc4ccccc4C(F)(F)F)cc32)c1 | inactive: 10%
CN1CCN(C(=O)C(=O)Nc2c3c(nn2-c2ccc(F)cc2)CSC3)CC1 | inactive: 6.78%
Cc1ccc(NC(=O)/C=C/c2ccccc2)c(Br)c1 | inactive: 19.6%
COc1ccc(-c2nc3scc(CCNS(=O)(=O)c4c(C)noc4C)n3n2)cc1 | inactive: 14.7%
Cc1ccccc1CNC(=O)C1CCN(c2nnc(C)c3c(C)n(-c4ccccc4)nc23)CC1 | inactive: -2.69%

Compound | activity change, negative = cytotoxicity
CCc1ccc(-c2nc3ccc(Br)cc3c(C(=O)O)c2C)s1 | inactive: 10.2%
O=C(Cn1c(=O)n(Cc2ccc3c(c2)OCO3)c(=O)c2oc3ccccc3c21)Nc1ccccc1 | inactive: 0.866%
CCc1nnc(NC(=O)c2cc(=O)c3cc(C)c(C)cc3o2)s1 | inactive: -0.709%
COc1cc(-c2noc(-c3cc4cc(F)ccc4oc3=O)n2)cc(OC)c1OC | inactive: 16.4%
CN1C(=O)C2(c3ccccc31)N(c1ccccc1)C(=O)CS2(=O)=O (centres undefined) | inactive: -5.1%
CCn1c(C(=O)NCc2cccc(Br)c2)cc2oc3ccccc3c21 | inactive: 5.88%
O=C(CSc1cn(CC(=O)N2CCCCC2)c2ccccc12)Nc1ccccc1F | inactive: -9.89%
COc1ccccc1-c1noc(CSc2nc3ccc(C)cc3[nH]2)n1 | inactive: -18.6%
COc1ccc(C(=O)c2cn(Cc3ccc(C)cc3)c3cc4c(cc3c2=O)OCO4)cc1 | inactive: -23.1%
CCOc1ccccc1NC(=O)CSc1nccn1-c1ccc(Cl)cc1 | inactive: 13.2%
Cc1c(Cl)cccc1NC(=O)CCn1c(=O)c2cccn2c2ccccc21 | inactive: 2.14%
Cc1ccc2c(CC(=O)Nc3ccccc3C(F)(F)F)coc2c1C | inactive: 0.553%
CN1CCN(C(CNC(=O)C(=O)Nc2ccc(F)cc2F)c2ccc3c(c2)OCO3)CC1 (centres undefined) | inactive: 8.6%
CCOc1ccc(CCNC(=O)Cn2nnc(-c3ccc(OC)c(OC)c3)n2)cc1OCC | inactive: 4.98%
CC(C)Oc1ccc(CNS(=O)(=O)c2cnc(N)nc2)cc1 | inactive: 9.99%
O=C(NC1CCCCC1)c1ccc2c(c1)N(Cc1ccccc1)C(=O)c1ccccc1S2 | inactive: 3.06%
CCCc1nn2c(=O)cc(COC(=O)c3ccc(NC(=O)C(C)Oc4ccccc4)cc3)nc2s1 (centres undefined) | inactive: 0.0044%
CCCCNc1nc(Oc2ccc(=O)n(C)n2)nc(N(C)C)n1 | inactive: 0.56%
CSc1nc(-c2ccc(F)cc2)nc2c1Cc1c(CO)cnc(C)c1O2 | inactive: -0.508%
COc1cc(NC(=O)c2nnn(CC(=O)Nc3ccccc3)c2N)cc(OC)c1 | inactive: 10.2%
Cc1cc2c(cc1S(=O)(=O)N1CCC(C)CC1)OCC(=O)N2 | inactive: 6.46%
Cc1c(C(=O)NCc2ccc(N(C)C)cc2)oc2c1-c1nn(Cc3cccc(Cl)c3)cc1CC2 | inactive: -7.2%
O=C(COc1ccccc1)Nc1ccc(S(=O)(=O)N(Cc2ccccc2)c2ccccc2)cc1 | inactive: 1.42%
COC(=O)CNC(=O)C(Cc1ccccc1)NS(=O)(=O)c1ccc2c(c1)c(=O)n(C)c(=O)n2C (centres undefined) | inactive: 8.08%
